Results from paper PMC10526831, “SUPPRESSOR OF MAX2 LIKE 6, 7, and 8 Interact with DDB1 BINDING WD REPEAT DOMAIN HYPERSENSITIVE TO ABA DEFICIENT 1 to Regulate the Drought Tolerance and Target SUCROSE NONFERMENTING 1 RELATED PROTEIN K”.
Results are given in words; binding and its absence hold for the method and conditions named. Some entries that bind do so weakly or less than the wild type. Where a sequence is shown, tags or fusion partners need not be part of it.

Legend:
Experiment in all cases: two-hybrid; bait and prey co-transformed into Y2H Gold; spotted on DDO (SD/-Leu/-Trp) or QDO (SD/-Ade/-His/-Leu/-Trp) with or without X-alpha-Gal/AbA; 30 °C, 3 days
[1] = biological target: T1, SUPPRESSOR OF MAX2-LIKE 8 fused to the GAL4 DNA binding domain (Arabidopsis thaliana) (UniProt F4IGZ2)
T1 sequence: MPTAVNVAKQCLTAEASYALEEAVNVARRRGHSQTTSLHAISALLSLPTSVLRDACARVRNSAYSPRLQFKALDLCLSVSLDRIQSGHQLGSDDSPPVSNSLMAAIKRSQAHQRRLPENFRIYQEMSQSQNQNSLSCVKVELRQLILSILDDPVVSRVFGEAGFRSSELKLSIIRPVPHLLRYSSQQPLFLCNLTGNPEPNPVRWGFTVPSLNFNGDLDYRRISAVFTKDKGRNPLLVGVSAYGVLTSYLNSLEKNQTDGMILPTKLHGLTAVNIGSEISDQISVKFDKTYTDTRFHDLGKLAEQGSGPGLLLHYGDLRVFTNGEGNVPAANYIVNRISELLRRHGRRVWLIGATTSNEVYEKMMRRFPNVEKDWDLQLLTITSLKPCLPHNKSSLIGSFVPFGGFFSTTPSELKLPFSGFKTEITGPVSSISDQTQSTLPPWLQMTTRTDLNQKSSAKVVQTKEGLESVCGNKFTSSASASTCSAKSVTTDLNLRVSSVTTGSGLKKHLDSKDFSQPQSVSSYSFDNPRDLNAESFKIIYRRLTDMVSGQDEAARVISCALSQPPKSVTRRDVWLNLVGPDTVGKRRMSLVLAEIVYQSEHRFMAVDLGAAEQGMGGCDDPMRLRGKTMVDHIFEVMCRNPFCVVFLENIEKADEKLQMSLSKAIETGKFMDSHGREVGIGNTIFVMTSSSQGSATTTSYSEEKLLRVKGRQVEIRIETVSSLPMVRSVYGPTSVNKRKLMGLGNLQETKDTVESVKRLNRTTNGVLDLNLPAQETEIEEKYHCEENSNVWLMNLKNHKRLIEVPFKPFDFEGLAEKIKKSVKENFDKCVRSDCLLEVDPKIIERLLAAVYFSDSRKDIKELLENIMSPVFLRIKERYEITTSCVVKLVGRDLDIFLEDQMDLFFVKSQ

[2] = biological target: T2, SUPPRESSOR OF MAX2-LIKE 6 fused to the GAL4 DNA binding domain (Arabidopsis thaliana) (UniProt Q9LML2)
T2 sequence: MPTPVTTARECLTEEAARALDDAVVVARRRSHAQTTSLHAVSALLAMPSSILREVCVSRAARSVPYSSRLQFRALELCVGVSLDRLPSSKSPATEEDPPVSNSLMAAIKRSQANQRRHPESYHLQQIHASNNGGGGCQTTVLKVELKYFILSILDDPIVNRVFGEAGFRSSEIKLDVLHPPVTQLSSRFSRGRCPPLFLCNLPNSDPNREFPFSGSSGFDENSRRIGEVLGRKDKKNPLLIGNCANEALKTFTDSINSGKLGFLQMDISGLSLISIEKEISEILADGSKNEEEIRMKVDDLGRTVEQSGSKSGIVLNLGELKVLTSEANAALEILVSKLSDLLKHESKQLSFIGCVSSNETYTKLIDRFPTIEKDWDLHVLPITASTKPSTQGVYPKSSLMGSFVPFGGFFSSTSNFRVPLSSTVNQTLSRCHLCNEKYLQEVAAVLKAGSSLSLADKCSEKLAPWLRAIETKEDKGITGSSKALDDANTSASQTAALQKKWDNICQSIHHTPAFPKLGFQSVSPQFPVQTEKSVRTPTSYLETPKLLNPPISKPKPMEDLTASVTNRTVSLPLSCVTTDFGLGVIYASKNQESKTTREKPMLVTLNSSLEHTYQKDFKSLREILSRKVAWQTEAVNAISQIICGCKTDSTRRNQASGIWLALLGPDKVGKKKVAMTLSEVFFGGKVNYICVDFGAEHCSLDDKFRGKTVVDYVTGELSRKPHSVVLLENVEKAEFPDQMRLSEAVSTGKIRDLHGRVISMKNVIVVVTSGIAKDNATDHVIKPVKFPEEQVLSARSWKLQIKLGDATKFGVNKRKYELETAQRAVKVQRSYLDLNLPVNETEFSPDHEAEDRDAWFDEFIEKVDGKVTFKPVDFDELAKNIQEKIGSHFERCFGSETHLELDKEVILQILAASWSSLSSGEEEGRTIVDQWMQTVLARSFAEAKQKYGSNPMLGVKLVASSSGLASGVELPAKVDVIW

[3] = biological target: T3, SUPPRESSOR OF MAX2-LIKE 7 fused to the GAL4 DNA binding domain (Arabidopsis thaliana) (UniProt O80875)
T3 sequence: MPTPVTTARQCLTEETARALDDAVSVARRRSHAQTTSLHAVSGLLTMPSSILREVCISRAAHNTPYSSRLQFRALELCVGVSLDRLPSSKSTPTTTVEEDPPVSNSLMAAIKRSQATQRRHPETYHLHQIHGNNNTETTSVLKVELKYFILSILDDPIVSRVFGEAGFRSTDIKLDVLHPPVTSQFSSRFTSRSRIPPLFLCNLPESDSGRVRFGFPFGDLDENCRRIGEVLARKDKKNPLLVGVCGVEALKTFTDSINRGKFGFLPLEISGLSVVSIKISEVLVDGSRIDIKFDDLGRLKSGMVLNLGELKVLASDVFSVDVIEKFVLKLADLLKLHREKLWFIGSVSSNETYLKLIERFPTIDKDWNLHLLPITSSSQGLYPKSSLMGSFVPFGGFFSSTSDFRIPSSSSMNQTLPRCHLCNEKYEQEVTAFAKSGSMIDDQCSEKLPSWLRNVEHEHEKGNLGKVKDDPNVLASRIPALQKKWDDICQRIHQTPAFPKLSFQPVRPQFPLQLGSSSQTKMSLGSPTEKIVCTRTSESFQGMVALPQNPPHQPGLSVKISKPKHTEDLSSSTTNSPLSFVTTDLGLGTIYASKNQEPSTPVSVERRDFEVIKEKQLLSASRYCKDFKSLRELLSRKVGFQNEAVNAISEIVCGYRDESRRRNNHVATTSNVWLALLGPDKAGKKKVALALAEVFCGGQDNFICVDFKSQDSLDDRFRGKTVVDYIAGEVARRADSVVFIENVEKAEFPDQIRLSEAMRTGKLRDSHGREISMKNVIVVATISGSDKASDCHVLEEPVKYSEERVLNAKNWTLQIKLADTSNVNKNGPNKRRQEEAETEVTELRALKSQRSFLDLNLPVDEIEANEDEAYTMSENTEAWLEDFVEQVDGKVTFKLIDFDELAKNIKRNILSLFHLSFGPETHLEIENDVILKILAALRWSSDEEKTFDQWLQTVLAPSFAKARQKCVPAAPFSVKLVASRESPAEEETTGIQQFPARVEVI

Measured: binding

B1: DDB1-BINDING WD-REPEAT DOMAIN (DWD) … TO ABA … 1 (ABA1) (DWA1) fused to the GAL4 activation domain (protein, UniProt Q8L4M1 1-367)
chain: MYGDATNWNEDEYRESILKEREIETRTVFRTAWAPPARISNPDAFVVASSDGTLAFHSLNSLVSQSASFGYSKGQDVMVAEPERVVRAHEGPAYDVKFYGEDEDALLLSCGDDGRVRGWKWREFAESDVSLHLKENHLKPLLELINPQHKGPWGALSPMPEINAMSVDPQSGSVFTAAGDSCAYCWDVESGKIKMTFKGHSDYLHTVVSRSSASQILTGSEDGTARIWDCKTGKCVKVIGSQDKKSRLRVSSMALDGSESWLVCGQGKNLALWNLPASECVQTIPIPAHVQDVMFDEKQILTVGAEPLLRRFDLNGALLSQIHCAPCSVFSISLHPAGVVAVGGYGGIVDVISQFGSHLCTFRSSSL
binds: all assays above
